Experimental data: article PMC7819943, “Rice protein-binding microarrays: a tool to detect cis-acting elements near promoter regions in rice”
This is one part of the list.

Molecular target: T1, OsWOX13 (Oryza sativa, UniProt Q5QMM3 1-267)
T1 sequence: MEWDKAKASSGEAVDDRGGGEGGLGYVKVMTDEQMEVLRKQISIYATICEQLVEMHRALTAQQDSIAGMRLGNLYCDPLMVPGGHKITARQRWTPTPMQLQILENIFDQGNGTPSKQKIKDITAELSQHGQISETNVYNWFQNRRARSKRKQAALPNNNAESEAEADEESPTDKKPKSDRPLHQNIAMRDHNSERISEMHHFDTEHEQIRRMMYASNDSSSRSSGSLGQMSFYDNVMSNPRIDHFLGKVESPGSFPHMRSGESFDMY
Assay: protein-binding microarray (RPBM); PBS, 2% BSA, 51.3 ng/ul salmon testes DNA, 50 uM zinc acetate, 200 nM TF, 25 C, 1 h; high values mean tight binding
Details: protein: recombinant; tags: N-terminal polyhistidine and DsRed monomer fusion (pET32a); label: CyDye5-dUTP incorporated in the synthesized complementary strand; 3' TTTTT single-stranded linker to array surface; dsDNA, one strand shown
Method in brief: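 An Axon 4000B scanner gave the binding signal as per-feature fluorescence intensity in arbitrary units. This followed washing of a custom Agilent array that had been incubated for 1 h at 25 °C with 200 nM protein in PBS, 2% BSA, salmon testes DNA and 50 µM zinc acetate. The proteins were transcription factors fused at the N-terminus to polyhistidine and DsRed, expressed in E. coli BL21-CodonPlus and purified on Ni–NTA.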

| Sequence | binding signal |
| --- | --- |
| GGGTTAATTTGAGCACAGACTGCCCGTTACAGCTTTGTTGCGGAGTCACCTAGTGCAG | 34400 fluorescence intensity (a.u.) |
| CGGCGTAATTTCCACAGTAATTGTTTGGATTGCAGTAGGACGGAGTCACCTAGTGCAG | 33000 fluorescence intensity (a.u.) |
| AGATGATCAATTGGGAATGAAGAGATTAAGACCATTTGATCGGAGTCACCTAGTGCAG | 3610 fluorescence intensity (a.u.) |
| ATTGATTATGTGTTCTTTAATACGATTTGTGGTAATGACTCGGAGTCACCTAGTGCAG | 33800 fluorescence intensity (a.u.) |
| CATATGTTTCAATCTGTTAACATTCTTGATTTCATACGTACGGAGTCACCTAGTGCAG | 7150 fluorescence intensity (a.u.) |
| TCTCATCCGTGACAGTTCGTAACTGTCACCCTTCATAGATCGGAGTCACCTAGTGCAG | 3260 fluorescence intensity (a.u.) |
| TAATATCTTAATTGGTATTCGTAACCGGTAGCGTTCATACCGGAGTCACCTAGTGCAG | 22300 fluorescence intensity (a.u.) |
| TTGATACTCTGATGATTGTAAAGTAAATTGTTTGAAATTTCGGAGTCACCTAGTGCAG | 9650 fluorescence intensity (a.u.) |
| CTTTTCCATACTTAAATTTAATGCTACTTATCTCACATGACGGAGTCACCTAGTGCAG | 4210 fluorescence intensity (a.u.) |
| CTCTAATTTATCTATAATCAATGTAATAGCTAATTCATACCGGAGTCACCTAGTGCAG | 32500 fluorescence intensity (a.u.) |
| CAAAATTTGATGAATGGAAGGGTCGAAACTGAGTGATTGCCGGAGTCACCTAGTGCAG | 23600 fluorescence intensity (a.u.) |
| TAATATATGATTTACATATTGTTAAACTACATGGAATTCTCGGAGTCACCTAGTGCAG | 6650 fluorescence intensity (a.u.) |
| TTTCAAATAATTATTATGTTGTAGTTTGTGAATGGGCAAACGGAGTCACCTAGTGCAG | 5150 fluorescence intensity (a.u.) |
| CTATATAAAACTGATTGATTCATATTACTACGACGTTTTACGGAGTCACCTAGTGCAG | 6690 fluorescence intensity (a.u.) |
| GATTTGTGATGATTATTCGTGATTTGCGATAAATGGTCCCCGGAGTCACCTAGTGCAG | 30900 fluorescence intensity (a.u.) |
| CTTAATTAACTCTGTCTGCAGGTCAGCGTTTACCTGCAGACGGAGTCACCTAGTGCAG | 5380 fluorescence intensity (a.u.) |
| TCATATTAATTTTAAGTGTTGATCCTATGTTAGCACTGGCCGGAGTCACCTAGTGCAG | 8150 fluorescence intensity (a.u.) |
| TCGTGGTGGTGGTGGTGGTGGAAGTTAGGGTTTGAGGGTTCGGAGTCACCTAGTGCAG | 4650 fluorescence intensity (a.u.) |
| AATCTCAAATTGAATCCATTTTATTTGATGACGATTTATTCGGAGTCACCTAGTGCAG | 9810 fluorescence intensity (a.u.) |
| TAATAGATTTAATCATGTGCTGATGACATTATTATGATTCCGGAGTCACCTAGTGCAG | 19900 fluorescence intensity (a.u.) |
| CTTGGGATTATTATAATCTAGATTATTGAGTTAGATTACTCGGAGTCACCTAGTGCAG | 18700 fluorescence intensity (a.u.) |

| Sequence | binding signal |
| --- | --- |
| TGCAGTCCATTTATCACTTGATTATCTGGGAATTGAAGAGCGGAGTCACCTAGTGCAG | 11300 fluorescence intensity (a.u.) |
| TCTTCCCTACACACATCAATCAACGGGCAAAGCAAGCGAGCGGAGTCACCTAGTGCAG | 7970 fluorescence intensity (a.u.) |
| TATATGACTGGATTGTTATCATTTCACAGAAACAGCGCTCCGGAGTCACCTAGTGCAG | 15000 fluorescence intensity (a.u.) |
| GGATAGAGTAATTAAAGATTTAAATGCACATGCAAATATGCGGAGTCACCTAGTGCAG | 5660 fluorescence intensity (a.u.) |
| CACTGAAACAAAACCTGATTTGTCAATTGTCATGTACTCACGGAGTCACCTAGTGCAG | 5890 fluorescence intensity (a.u.) |
| CTTCATCAATCATCATATGCCGAACACAACCTTAATACTGCGGAGTCACCTAGTGCAG | 20100 fluorescence intensity (a.u.) |
| CCTAACAATCGGTCAATCTAGTAGCACAAGACATTCCAAACGGAGTCACCTAGTGCAG | 3730 fluorescence intensity (a.u.) |
| CGTCGCCTCCATTATATATTTTGTACACACCTACAGTTGCCGGAGTCACCTAGTGCAG | 4010 fluorescence intensity (a.u.) |
| ACACAAGATTGACTACATGTGTATCGAGAAATGTAAATATCGGAGTCACCTAGTGCAG | 9350 fluorescence intensity (a.u.) |
| ATAATTATTATGTCTGGTAGGATAGGATTTAGATGGTAAGCGGAGTCACCTAGTGCAG | 5670 fluorescence intensity (a.u.) |
| TGAGATAATTAACATGTACTCTAGTCACTAACTTGCAATTCGGAGTCACCTAGTGCAG | 13500 fluorescence intensity (a.u.) |
| ATCTGATTACCCTTTCTCACTAGACACGTGCCAAAACTAGCGGAGTCACCTAGTGCAG | 14700 fluorescence intensity (a.u.) |
| CATGATGGGAAGTTAGTTGACCATCCAGTTGTCAAGTTTGCGGAGTCACCTAGTGCAG | 10700 fluorescence intensity (a.u.) |
| TATGACAGATAAGCATAAATATAAGCGAAAATATGAGGATCGGAGTCACCTAGTGCAG | 6070 fluorescence intensity (a.u.) |
| AATGATAGGGAACTGTCGGAGATAGGAAAGACGGCGGGACCGGAGTCACCTAGTGCAG | 14800 fluorescence intensity (a.u.) |
| CATACAGTTAATTAACACCATGCATACAACATTTACACTCCGGAGTCACCTAGTGCAG | 17600 fluorescence intensity (a.u.) |
| GGTTGGGGAAGGAGAGGAGAGGAGAGGAGAGGAGAGGAGACGGAGTCACCTAGTGCAG | 9690 fluorescence intensity (a.u.) |
| CATCGATCAGATCAAATCAAATCAAATCAACTCAAGCGCCCGGAGTCACCTAGTGCAG | 7760 fluorescence intensity (a.u.) |
| GTCAGCTGATTGCTTATTCTTATATTATAAGACAGATGAGCGGAGTCACCTAGTGCAG | 38800 fluorescence intensity (a.u.) |
| TTAGTGCTTAAATGATTAATCTATGGTCCAAATTATCTTTCGGAGTCACCTAGTGCAG | 6040 fluorescence intensity (a.u.) |
| GATGATATGCCACAGTGTGATTAACCAAGATCAGTTTTCGCGGAGTCACCTAGTGCAG | 4310 fluorescence intensity (a.u.) |
